± gives the standard deviation of the averaged measurements. The list shows a part of the results.
These sequences were tested on PfAP2-LT AP2 domain (GST-tagged) (assay: gcPBM binding intensity (ln(normalized median fluorescence intensity)); higher = stronger DNA binding).
In short: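 GST-tagged P. falciparum DNA-binding domains, expressed in E. coli (about 25 μg on average), were applied for 1 h to an Agilent 4 × 180k array of primer-extended double-stranded 36-bp intergenic genomic probes plus negative controls. The binding buffer was 1× PBS with 1% milk, 0.2 mg/ml BSA, 0.5% salmon testes DNA and 0.03% Triton X-100. Bound protein was detected with Alexa488 anti-GST antibody and scanned at 488 nm. Binding intensity is the highest Masliner-normalised natural-log median intensity across replicate spots of either probe orientation.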

Row | Sequence | gcPBM binding intensity (ln)
1 | TATATGGGATATATGTGTACATATAAAATATGTATC [XGTACX_site3365] | 8.87 ± 0.43
2 | TTTTTTTTTTTTTTTACACACATTTGAATAACTTTA [CACACA_site6810] | 8.73 ± 0.48
3 | AAAAGAATTAAAAAATGTACATATAATATATATATA [XGTACX_site6721] | 8.86 ± 0.38
4 | CTTAATATGAATAAAACACACATATATAATTTGTAA [CACACA_site5120] | 8.7 ± 0.43
5 | TTTTCCCTTACAGAAAAAAAAAAATTCCTAACCCCG [CACACA_negctrl_site650] | 8.46 ± 0.12
6 | ATATATTTTAGGAGAGTGCATTTAATATTATTTAAT [GTGCAC_site9444] | 8.44 ± 0.4
7 | TTATATATTTATAATCGTACAATAATTAACGTAAAA [XGTACX_site3206] | 8.42 ± 0.4
8 | CATATAATAAATAATACACACATATTGTAAATATAT [CACACA_site5734] | 9.07 ± 0.46
9 | GTAATGAACAAACACAAAAAAAAAAAAAAAATAATA [TGCATGCA_negctrl_site344] | 8.74 ± 0.45
10 | TAAAATAAAATAAAATGTACTTTCCTTTTGATAATA [XGTACX_site6288] | 8.22 ± 0.54
11 | AATTGAGTATCGTGAGTGCAAAACGTGGTTCAAAGA | 8.99 ± 0.51
12 | ATTTGAAAAAATACTACACACCATATTGTTAATTTT [CACACA_site3829] | 8.79 ± 0.38
13 | AAGATTCATATAAAAAGTACAAAAAGAAAAAAATAA [XGTACX_site6033] | 8.67 ± 0.47
14 | TGATAAATTTTCACATGTACATATATAGAATAACCT [XGTACX_site2860] | 8.79 ± 0.26
15 | ATTAAATCATATGAATGTACGGATATATATATTTCC [XGTACX_site8650] | 8.86 ± 0.42
16 | ATATATATGTATATATGTACATATATGTATATATAT [XGTACX_site4772] | 9.12 ± 0.57
17 | ATAATTTTATATAAATGTACATACATTTTTATTATA [XGTACX_site7368] | 8.61 ± 0.4
18 | ATAATATATGCAAAAACATGCACATAATATGTAAAA [TGCATGCA_site742] | 8.93 ± 0.44
19 | TATACACATAGACACACACACATACACGCACATACA [CACACA_site6908] | 9.99 ± 0.17

Row | Sequence | gcPBM binding intensity (ln)
20 | TAATAAGTATCAAAATGTACATGACAAAAATAATTT [XGTACX_site8961] | 8.89 ± 0.38
21 | TCTAAAAAAATTATATCACACATTATAAAGCATATT [CACACA_site4885] | 8.48 ± 0.31
22 | ATTTGTATATAATATATATAATTTTTTTTTTTTGTT [XGTACX_negctrl_site425] | 8.45 ± 0.56
23 | ATAACTATATACATCTGTACATAATACATAGATAAA [XGTACX_site2795] | 8.86 ± 0.42
24 | ATATCTTCACTTATATGTACTTACATTTTTTTTTTT [XGTACX_site8696] | 8.96 ± 0.5
25 | CAAATAAAAAAAGTAGCACACATGAATAAAATATAT [CACACA_site3130] | 9.16 ± 0.42
26 | ATACATACATATGTATGTACGTATGTATGTATGTAT [XGTACX_site3853] | 9.16 ± 0.32
27 | TTATAAAAAGAACAATTAAAAAAAAATAAAATAAAA [XGTACX_negctrl_site398] | 8.4 ± 0.63
28 | AGAATAGTGGAAAACACACACGTTTGAGATATGGAC [CACACA_site4782] | 9.41 ± 0.45
29 | CACCCACCCACATACACACACATACACATATATATA [CACACA_site1722] | 10 ± 0.22
30 | GCACGTGTGATTAGATGTACATAACATGTATATGTC [XGTACX_site4632] | 9.09 ± 0.49
31 | TTTTTATGTTCTATATATATATATATATATATATAT [GTGCAC_negctrl_site306] | 9.39 ± 0.26
32 | CATAATATATATTGAGCATGCTACTATTGTTAGAAA [TGCATGCA_site740] | 8.89 ± 0.45
33 | AAAAAAAAAAACTACACACATACAAATATTTATATA [CACACA_site2574] | 9.04 ± 0.41
34 | ACATATAAGATATATACACACATATAAATACATTAA [CACACA_site7763] | 9.13 ± 0.39
35 | AAAAAAAAAAAAAAAACACACATACACCCAGACACA [CACACA_site5807] | 9.71 ± 0.18
36 | ATACATATATAAATATGTACACACATATGTATGATC [XGTACX_site8219] | 9.26 ± 0.33
37 | GGAAACCCTCCCAAATGTACTTTTATAAAAAAATAC [XGTACX_site5502] | 8.66 ± 0.18
38 | TATACTCAGAAACACACACACACACCCAAAAAAAAA [CACACA_site4434] | 10.1 ± 0.35

Row | Sequence | gcPBM binding intensity (ln)
39 | ATATAAGTACATATAACACACATATATTATAAGTAT [CACACA_site2647] | 9.16 ± 0.35
40 | TTTGCCATAAAACACACACACATGTAAACCCCCTTT [CACACA_site1646] | 9.76 ± 0.2
41 | TTTTTATTTTTTGTCTGTACATATATAAATTTATTA [XGTACX_site1525] | 8.73 ± 0.49
42 | GATATAAGGGTATGAAGTACATAAATATTTTATGCT [XGTACX_site1886] | 8.86 ± 0.43
43 | TATGCACGCGAACACACACACACAACTAAAAAATAA [CACACA_site7251] | 9.79 ± 0.37
44 | ATGTAAGTATAAAATGTGCGCATTGGGAATGAGGAC | 9.6 ± 0.38
45 | ATGAATTAACCTAATCGTACAATAAATATTATTATA [XGTACX_site596] | 8.59 ± 0.5
46 | ATATATATATATGTATGTATATATATATGTTTGATT [XGTACX_negctrl_site62] | 9.31 ± 0.37
47 | ACTATTTAAAAATATGGTACACGAAATTCAAGAGAA [XGTACX_site5903] | 8.73 ± 0.36
48 | AAGTTTTATATTTATTAAATTTTTTTTTTTCCTTTT [XGTACX_negctrl_site184] | 8.31 ± 0.58
49 | ATATGTTTAAAAATATGTACGTATTATATATTCTAT [XGTACX_site1358] | 8.81 ± 0.45
50 | TTTTTTATTTTGTTGAAGCAATGAAAATGAATGAAA [TGCATGCA_negctrl_site495] | 8.07 ± 0.26
51 | TTGTTTATGTGAGAAGTGCATTTTTTCGTTCATGTA | 8.77 ± 0.47
52 | TACGCGAAATGAATATGTACATATATGAGGGCATAT [XGTACX_site4293] | 9.12 ± 0.43
53 | TAATATATAAATATATGTACATAATAAATAGGATAT [XGTACX_site3661] | 8.99 ± 0.45
54 | TTTATATAAGGACATGCATGCTATTATTAAATATAT [TGCATGCA_site1011] | 8.83 ± 0.42
55 | ACTTCATAGGTTACCTGTACATATAAGGAGTTATCA [XGTACX_site4110] | 8.68 ± 0.35
56 | ATATATACATATAATTGTACTTGTGTTGTTTTTCTT [XGTACX_site1870] | 9.21 ± 0.41
57 | TTAACGCTTATTTTTTGTACTTATTTTATTTTAAAT [XGTACX_site3977] | 8.79 ± 0.4

Reference: the supplement of paper PMC11417369
